Source: paper PMC4336329 (PLoS ONE, 2015)
Hit rate of the full screen: of about 310,000 compounds, about 2,200 (0.71%) showed an effect of 50% or more. Effects have a minus sign here. The list shows a part of the results. Where a SMILES comes first, the peptide text is derived from it. The star is where a group is joined. Boc = CC(C)(C)OC(=O)*

molecular target: human ether-à-go-go-related gene (hERG) potassium channel (human, UniProt Q12809); assay: primary screen, population patch clamp on CHO cells stably expressing hERG
Sequence (Q12809 whole entry, looked up): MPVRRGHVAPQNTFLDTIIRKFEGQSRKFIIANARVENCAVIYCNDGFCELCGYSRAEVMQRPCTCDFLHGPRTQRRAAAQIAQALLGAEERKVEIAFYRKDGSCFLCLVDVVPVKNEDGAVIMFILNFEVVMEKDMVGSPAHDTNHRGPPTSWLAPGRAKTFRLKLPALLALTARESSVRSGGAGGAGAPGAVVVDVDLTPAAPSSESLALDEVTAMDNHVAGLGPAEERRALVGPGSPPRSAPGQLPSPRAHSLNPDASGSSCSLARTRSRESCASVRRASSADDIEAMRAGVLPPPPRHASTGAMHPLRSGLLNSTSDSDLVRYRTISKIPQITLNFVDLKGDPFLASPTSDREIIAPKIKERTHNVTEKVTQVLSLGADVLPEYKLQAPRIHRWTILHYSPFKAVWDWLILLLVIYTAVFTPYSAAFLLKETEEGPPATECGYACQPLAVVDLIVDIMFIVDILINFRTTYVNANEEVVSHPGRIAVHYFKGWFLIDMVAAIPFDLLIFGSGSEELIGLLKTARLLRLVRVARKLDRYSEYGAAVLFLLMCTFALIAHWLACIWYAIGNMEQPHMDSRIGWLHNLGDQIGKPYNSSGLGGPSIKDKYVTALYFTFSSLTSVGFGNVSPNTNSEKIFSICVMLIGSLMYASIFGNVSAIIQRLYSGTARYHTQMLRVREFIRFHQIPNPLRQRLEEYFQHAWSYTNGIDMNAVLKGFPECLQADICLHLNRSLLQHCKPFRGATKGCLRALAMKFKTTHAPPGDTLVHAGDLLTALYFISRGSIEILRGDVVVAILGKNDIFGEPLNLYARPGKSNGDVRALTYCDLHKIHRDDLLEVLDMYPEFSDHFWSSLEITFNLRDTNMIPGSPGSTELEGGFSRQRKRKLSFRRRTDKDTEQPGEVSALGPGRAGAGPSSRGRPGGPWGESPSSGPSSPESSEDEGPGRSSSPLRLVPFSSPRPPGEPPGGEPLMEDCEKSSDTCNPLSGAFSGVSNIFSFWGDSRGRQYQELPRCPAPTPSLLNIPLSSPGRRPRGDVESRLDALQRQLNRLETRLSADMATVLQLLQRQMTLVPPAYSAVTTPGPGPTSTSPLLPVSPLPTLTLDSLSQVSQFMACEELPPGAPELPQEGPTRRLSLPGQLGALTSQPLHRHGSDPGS

| SMILES | hERG current change (%, negative = inhibition) at 1uM |
| --- | --- |
| O=C(Nc1ccc(Cl)cn1)c1cc(S(=O)(=O)N2CCCCC2)ccc1Cl | 0.512% |
| Cc1cccc(NC(=O)c2onc3c2CCCC3)n1 | -8.99% |
| CC(Oc1ccc2c(-c3ccccc3)cc(=O)oc2c1)C(=O)NCc1ccccn1 (centres unmarked) | -2.51% |
| COc1ccc(C2(C(=O)N3CCOCC3)CCCC2)cc1 | 16.4% |
| COc1cccc(NC(=O)CN(C)C(=O)CSc2nc(C)cc(C)n2)c1 | 13% |
| C/C(=N\NC(=O)COc1cc(C)cc(C)c1)c1cccc(NC(=O)C2CCC2)c1 | 4.02% |
| CCCN(C(=O)CCNC(=O)Cn1cnc2ccccc2c1=O)c1cccc(Cl)c1 | 10% |
| COC(=O)CN1C(=O)[C@H]2[C@@H](/C=C/c3ccccc3)N3C(=O)CN(CC4CC4)C(=O)[C@@]3(Cc3ccccc3)[C@H]2C1=O | 15.5% |
| Cc1ccc(S(=O)(=O)NC2=NCN(C3CCN(Cc4ccccc4)CC3)CN2)cc1 | -6.75% |
| CC(C)Oc1ccc(C(=O)NC(C)(C)CO)cc1 | 15.1% |
| COc1cc(Br)cc(C(c2c(C)n(C)n(-c3ccccc3)c2=O)c2c(C)n(C)n(-c3ccccc3)c2=O)c1O | 7.67% |
| CCOC(=O)c1cc(C(=O)OCC)c2cc(Br)ccc2n1 | -4.65% |
| CCc1ccc(S(=O)(=O)c2n[nH]n3c2nc(=O)c2ccccc23)cc1 | -3.37% |
| Cc1ccc(NC(=O)C(C)C(=O)Nc2ccc(C)cc2)cc1 | 12.8% |
| COc1ccc(/C=C/C(O)=C(\C#N)c2nnc(N3CCOCC3)n2-c2ccccc2)cc1OC | 4.53% |
| Cc1oc2cc3oc(=O)c(CCC(=O)NC4CC4)c(C)c3cc2c1C | 15.2% |
| Cc1ccc(Nc2c(-c3ccco3)nc3nc(C)cc(C)n23)cc1 | 3.6% |
| CCOc1ccc(C(=O)NN2CCOCC2)cc1 | 7.67% |
| CCc1ccc(NC(=O)C(=O)N/N=C(\C)CC(=O)Nc2ccccn2)cc1 | -5.13% |
| CC1=C(C(=O)NC(C)C)C2(CCC(C)CC2)OC1=O (centres unmarked) | 11.5% |
| COc1ccc(/C=N/NC(=O)c2cccc([N+](=O)[O-])c2)cc1OC | 7.94% |
| COc1ccc(OCC(=O)Nc2nonc2NC(=O)COc2ccc(OC)cc2)cc1 | 18.7% |

| SMILES | hERG current change (%, negative = inhibition) at 1uM |
| --- | --- |
| CC(C)NC(=O)C1CCN(Cc2cnn(-c3ccccc3)c2-n2cccc2)CC1 | 6.5% |
| O=C(Nc1ncc(Cc2cccc(Cl)c2)s1)c1cccs1 | 10.7% |
| Fc1ccccc1-c1nc(-c2ccncc2)no1 | 7.25% |
| Cc1nnc(NC(=O)c2cccc(S(=O)(=O)N3CCc4ccccc43)c2)s1 | -1.57% |
| Cc1ccc(C(=O)OCC(=O)Nc2ccc(N(C)C)cc2)cc1NC(=O)c1ccco1 | 8.17% |
| COc1ccccc1NC(=O)c1cc(C(=O)Nc2ccccc2OC)cc(N2C(=O)CCC2=O)c1 | 16.7% |
| CC(NC(=O)COc1ccc(N(C)S(=O)(=O)c2ccccc2)cc1)c1ccccc1 (centres unmarked) | 8.78% |
| Cc1ccc(C(C)NC(=O)/C(C#N)=C\c2c(C)[nH]c3ccccc23)cc1 (centres unmarked) | 5.31% |
| CCN(CC)Cc1cc(C(=O)O)c(-c2ccccc2)o1.Cl | 8.31% |
| O=C(O)c1ccc(NS(=O)(=O)c2ccc(C(=O)Nc3ccccc3)cc2)cc1 | 6.86% |
| Cc1cc(C)cc(N2CC(C(=O)NC3CCCCC3)CC2=O)c1 (centres unmarked) | 13.2% |
| COC(=O)c1cc(OC)c(OC)cc1NC(=S)N1CCN(C)CC1 | 11.4% |
| COc1ccc(/C=N/NC(=O)c2cccnc2)c(C(=O)O)c1OC | 15.1% |
| O=c1ncn(-c2cccc(F)c2)c2ncccc12 | 16.9% |
| Cn1nc([N+](=O)[O-])nc1Sc1ccc(C(C)(C)C)cc1 | 7.21% |
| CC(C)(C)c1ccc(C(=O)Nc2ccc(F)cc2)s1 | 10.4% |
| COc1cc2c(cc1OC)CN(c1nc(-c3cccnc3)nc3ccccc13)CC2 | 9.34% |
| CN(CC(=O)NCC(c1ccccc1)N1CCCC1)S(=O)(=O)c1ccc(Cl)cc1 (centres unmarked) | -8.89% |
| O=[N+]([O-])c1ccccc1-c1ccc(/C=N/n2cnnc2)o1 | -10% |
| O=C(Nc1c(F)cc(F)cc1Br)c1cccnc1 | 10.6% |
| COc1ccc(OCCCC(=O)OC(C)C(=O)Nc2ccc(NC(C)=O)cc2)cc1 (centres unmarked) | 11.8% |
| O=S(=O)(Nc1ncccn1)c1ccc(NC(=S)NCCc2ccc(Cl)cc2)cc1 | 19.3% |

| SMILES | hERG current change (%, negative = inhibition) at 1uM |
| --- | --- |
| COCC(C)NC(=O)CSc1nnc(-c2cccc(S(=O)(=O)N3CCCCC3)c2)o1 (centres unmarked) | 19.4% |
| C=CCNc1nc(C(F)(F)F)nc2c1nnn2Cc1ccccc1Cl | 1% |
| CCc1ccc(-c2csc3ncn(Cc4ccc(C(=O)O)cc4)c(=O)c23)cc1 | -0.199% |
| O=C(NC1CCCCC1)N1CCc2ccccc2C1 | 13.4% |
| CCOC(=O)C1CCCN(C(=O)c2ccc(CNS(=O)(=O)c3ccc(C)cc3)cc2)C1 (centres unmarked) | 7.51% |
| O=C(CCNC(=O)N1CCn2c1nc1ccccc12)NCc1ccc(F)cc1 | 5.38% |
| CN1C(=O)CC(c2ccccc2)Nc2ccccc21.Cl (centres unmarked) | 9.48% |
| CCOC(=O)C1C(=O)OC2(CCCCC2)C1C(=O)OCC (centres unmarked) | 7.82% |
| CCc1nc(-c2cc3ccc(C)cc3[nH]c2=O)no1 | -12.5% |
| CCOc1ccccc1N1C(=O)c2cccnc2C1=O | 16.4% |
| NS(=O)(=O)c1ccc(CNc2nc(-c3cccnc3)nc3ccccc23)cc1 | 15.8% |
| COc1ccc(/C=C/C(=O)Nc2cccc(C(C)=O)c2)cc1 | -2.4% |
| COc1cccc2cc(C(=O)C3=C(O)C(=O)N(CCN4CCOCC4)C3c3cccs3)oc12 (centres unmarked) | 12.9% |
| CCCCOc1nc2ccccc2nc1NS(=O)(=O)c1ccc(F)cc1 | -3.17% |
| CC(C)OC(=O)CSc1nc2cccnc2n1C1CCCCC1 | 8.26% |
| COc1cc(/C=N/NC(=O)Nc2ccccc2)ccc1OCCOc1ccccc1C | 8.66% |
| COc1ccc(-n2cnc3ccccc3c2=O)c([N+](=O)[O-])c1 | 14.6% |
| O=C(COC(=O)/C=C/c1cccc(F)c1)Nc1ccccc1-c1ccccc1 | 12.2% |
| COc1ccc(CN2C(=O)c3cccnc3C2=O)cc1S(=O)(=O)NC1CCCCC1C (centres unmarked) | 6.2% |
| Cn1c(=O)[nH]c(=O)c2c1nc(N1CCCCCC1)n2CC(N)=O | 14.9% |
| O=C(COC(=O)Cc1ccccc1)NNC(=O)c1ccc([N+](=O)[O-])cc1 | 7.76% |
| Cc1cccc(C)c1N(CC(=O)N(C)Cc1ccccc1)S(C)(=O)=O | 5.81% |

| SMILES | hERG current change (%, negative = inhibition) at 1uM |
| --- | --- |
| O=C1CC(N(C(=O)c2ccco2)c2ccc(F)cc2)C(=O)N1c1ccc(F)cc1 (centres unmarked) | 4.37% |
| Cc1ccc(C(=O)N2NC(c3ccccc3F)C3C(=O)N(c4cccc(C)c4)C(=O)C32)cc1 (centres unmarked) | 8.55% |
| CCC(C)C(NC(=O)OC(C)(C)C)C(=O)NC(Cc1ccccc1)C(=O)OC (stereo not drawn) (Boc-Ile-Phe-OMe; configuration not given here) | 3.37% |
| CCCCNC(=O)C1COc2ccccc2O1 (centres unmarked) | 14.8% |
| CCOC(=O)C1CCN(Cc2cnc(Oc3ccc(OC)cc3)s2)CC1 | -5.56% |
| CCOC(=O)CC1C(=O)NCCN1C1CCCC1 (centres unmarked) | 12.1% |
| NC(=O)C1(N2CCCCC2)CCN(C(=S)Nc2ccccc2)CC1 | 9.1% |
| COc1ccc(OC(C)C(=O)NCC2CCCO2)cc1 (centres unmarked) | 14.4% |
| CCCCc1ccc(NC(=S)Nc2ccc(Cl)c(S(=O)(=O)N(C)C)c2)cc1 | 18.2% |
| C=CCNC(=S)N1CCN(CCN=CC2=C(O)CC(c3ccc(Cl)cc3)CC2=O)CC1 (centres unmarked) | -15.7% |
| O=C1OCc2ccc(NS(=O)(=O)c3ccc(C(F)(F)F)cc3)cc21 | 12.4% |
| C=C(C)Cn1c(C2CC(=O)N(c3ccccc3F)C2)nc2ccccc21 (centres unmarked) | 3.1% |
| O=S(=O)(/N=C(/Nc1ccc(F)c(F)c1F)c1ccccc1)c1ccccc1 | 7.72% |
| CC(C)CNC(=O)COC(=O)c1cccc(S(=O)(=O)NCC(F)(F)F)c1 | 13% |
| CCOc1ccc(S(=O)(=O)Nc2cccc(C(=O)N(C)CC(=O)Nc3cccc(OC)c3)c2)cc1 | -0.936% |
| Cn1c(C(O)c2ccc(Cl)cc2)nc(Cl)c1Cl (centres unmarked) | 13.6% |
| OC(CNCC1CCCO1)Cn1c2ccc(Br)cc2c2cc(Br)ccc21 (centres unmarked) | 10.6% |
| CCOC(=O)N1CCC(NCCNC(=O)c2ccc(F)c(F)c2)CC1.Cl | 2.78% |
| CC(=O)c1c(OC(=O)c2ccccc2)ccnc1C(F)(F)F | -4.82% |
| CN(C(=O)CSc1nc2ccccc2n1C)C1CCS(=O)(=O)C1 (centres unmarked) | 6.95% |
